Assay [1] has as its target T1, MUTE (yeast two-hybrid fusion) (Arabidopsis thaliana) (UniProt Q9M8K6).
T1 sequence: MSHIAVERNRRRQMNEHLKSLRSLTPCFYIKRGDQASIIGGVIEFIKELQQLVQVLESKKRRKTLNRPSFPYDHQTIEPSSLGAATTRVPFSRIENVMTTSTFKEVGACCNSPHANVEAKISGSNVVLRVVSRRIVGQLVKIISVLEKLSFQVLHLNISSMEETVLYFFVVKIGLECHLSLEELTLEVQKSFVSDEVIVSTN
Kind of assay: two-hybrid; yeast two-hybrid with GAL4BD and GAL4AD fusions; which protein on which domain not stated.

Assay [2] has as its target T2, … (yeast two-hybrid fusion) (Arabidopsis thaliana) (UniProt Q700C7).
T2 sequence: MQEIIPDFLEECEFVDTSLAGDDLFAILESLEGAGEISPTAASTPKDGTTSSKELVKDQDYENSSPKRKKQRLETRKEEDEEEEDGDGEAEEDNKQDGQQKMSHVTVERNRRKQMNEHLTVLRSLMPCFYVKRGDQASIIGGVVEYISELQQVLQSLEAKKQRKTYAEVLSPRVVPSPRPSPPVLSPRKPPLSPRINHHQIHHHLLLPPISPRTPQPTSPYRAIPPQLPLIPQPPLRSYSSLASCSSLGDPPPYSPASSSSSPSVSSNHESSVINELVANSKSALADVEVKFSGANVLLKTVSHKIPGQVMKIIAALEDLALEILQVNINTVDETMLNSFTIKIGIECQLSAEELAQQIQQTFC
The assay is described as above.

Assay [3] concerns the target T3, FAMA (yeast two-hybrid fusion) (Arabidopsis thaliana) (UniProt Q56YJ8).
T3 sequence: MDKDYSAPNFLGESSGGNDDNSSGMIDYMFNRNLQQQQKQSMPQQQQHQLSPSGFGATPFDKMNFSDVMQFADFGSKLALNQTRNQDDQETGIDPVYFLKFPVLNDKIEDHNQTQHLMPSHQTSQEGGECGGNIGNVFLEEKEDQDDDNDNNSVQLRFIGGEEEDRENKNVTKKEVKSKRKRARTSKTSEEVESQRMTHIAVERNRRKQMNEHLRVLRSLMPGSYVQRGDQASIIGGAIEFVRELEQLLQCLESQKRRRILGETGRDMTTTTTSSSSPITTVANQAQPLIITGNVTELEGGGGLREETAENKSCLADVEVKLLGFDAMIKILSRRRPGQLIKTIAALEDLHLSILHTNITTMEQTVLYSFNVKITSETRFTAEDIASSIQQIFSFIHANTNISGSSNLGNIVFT
The description is as above.

In assay [4] the target is T4, cYFP-SPCH (rBiFC) (Arabidopsis thaliana) (UniProt Q700C7).
T4 sequence: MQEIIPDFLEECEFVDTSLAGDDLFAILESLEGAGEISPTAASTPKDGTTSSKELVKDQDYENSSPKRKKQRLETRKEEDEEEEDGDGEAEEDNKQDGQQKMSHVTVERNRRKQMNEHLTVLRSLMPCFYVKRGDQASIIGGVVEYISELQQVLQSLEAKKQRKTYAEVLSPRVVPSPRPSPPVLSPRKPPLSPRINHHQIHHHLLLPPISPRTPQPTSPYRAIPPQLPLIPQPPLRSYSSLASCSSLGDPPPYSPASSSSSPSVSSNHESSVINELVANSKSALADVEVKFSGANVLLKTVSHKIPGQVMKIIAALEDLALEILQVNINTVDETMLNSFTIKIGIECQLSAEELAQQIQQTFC
Kind of assay: split reporter; ratiometric BiFC (pBiFCt-2in1-NN, RFP as internal reference) in tobacco (Nicotiana benthamiana) leaves, 36 h after infiltration; YFP signal in the nucleus.

In assay [5] the target is T5, KIN10-YFP (Arabidopsis thaliana) (UniProt Q38997).
T5 sequence: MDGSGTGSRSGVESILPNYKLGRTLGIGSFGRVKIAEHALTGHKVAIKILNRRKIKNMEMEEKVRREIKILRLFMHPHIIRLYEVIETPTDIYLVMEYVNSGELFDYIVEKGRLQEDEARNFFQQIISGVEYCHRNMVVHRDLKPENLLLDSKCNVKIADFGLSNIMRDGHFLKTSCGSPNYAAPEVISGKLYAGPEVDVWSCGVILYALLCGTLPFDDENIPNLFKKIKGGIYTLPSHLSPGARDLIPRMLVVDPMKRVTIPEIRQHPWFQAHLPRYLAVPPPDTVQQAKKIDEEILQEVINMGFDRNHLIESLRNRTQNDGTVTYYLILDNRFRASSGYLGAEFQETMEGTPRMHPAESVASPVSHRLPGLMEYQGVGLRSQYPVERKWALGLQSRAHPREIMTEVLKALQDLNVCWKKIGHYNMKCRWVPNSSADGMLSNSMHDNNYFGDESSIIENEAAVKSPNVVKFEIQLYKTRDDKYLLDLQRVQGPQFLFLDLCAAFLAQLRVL
Kind of assay: co-IP; seedlings expressing p35S::KIN10-YFP and p35S::SPCH-myc, or SPCH-myc only, grown with 1% sucrose for 5 days; lysate on GFP-Trap agarose beads, 4 °C, 1 h; washed with 300 mM NaCl, 1% Triton X-100; blots with anti-YFP/GFP and anti-myc.

These are yes or no findings as the source states them, for the method shown. For some assays here: In cells and extracts the contact can be indirect. Some results given as binding are weak or reduced against the parent protein; the word gives no strength. Where a sequence is shown, tags or fusion partners need not be part of it.

B1: KIN10 (yeast two-hybrid fusion) (enzyme, UniProt Q38997-2 1-512)
chain: MDGSGTGSRSGVESILPNYKLGRTLGIGSFGRVKIAEHALTGHKVAIKILNRRKIKNMEMEEKVRREIKILRLFMHPHIIRLYEVIETPTDIYLVMEYVNSGELFDYIVEKGRLQEDEARNFFQQIISGVEYCHRNMVVHRDLKPENLLLDSKCNVKIADFGLSNIMRDGHFLKTSCGSPNYAAPEVISGKLYAGPEVDVWSCGVILYALLCGTLPFDDENIPNLFKKIKGGIYTLPSHLSPGARDLIPRMLVVDPMKRVTIPEIRQHPWFQAHLPRYLAVPPPDTVQQAKKIDEEILQEVINMGFDRNHLIESLRNRTQNDGTVTYYLILDNRFRASSGYLGAEFQETMEGTPRMHPAESVASPVSHRLPGLMEYQGVGLRSQYPVERKWALGLQSRAHPREIMTEVLKALQDLNVCWKKIGHYNMKCRWVPNSSADGMLSNSMHDNNYFGDESSIIENEAAVKSPNVVKFEIQLYKTRDDKYLLDLQRVQGPQFLFLDLCAAFLAQLRVL
In the case of B1, the values for the binding result in assay [1], in assay [2] and in assay [3] were “no binding”, “binds” and “no binding”, respectively.

B2: nYFP-KIN10 (rBiFC) (enzyme, UniProt Q38997-2 1-512)
chain: MDGSGTGSRSGVESILPNYKLGRTLGIGSFGRVKIAEHALTGHKVAIKILNRRKIKNMEMEEKVRREIKILRLFMHPHIIRLYEVIETPTDIYLVMEYVNSGELFDYIVEKGRLQEDEARNFFQQIISGVEYCHRNMVVHRDLKPENLLLDSKCNVKIADFGLSNIMRDGHFLKTSCGSPNYAAPEVISGKLYAGPEVDVWSCGVILYALLCGTLPFDDENIPNLFKKIKGGIYTLPSHLSPGARDLIPRMLVVDPMKRVTIPEIRQHPWFQAHLPRYLAVPPPDTVQQAKKIDEEILQEVINMGFDRNHLIESLRNRTQNDGTVTYYLILDNRFRASSGYLGAEFQETMEGTPRMHPAESVASPVSHRLPGLMEYQGVGLRSQYPVERKWALGLQSRAHPREIMTEVLKALQDLNVCWKKIGHYNMKCRWVPNSSADGMLSNSMHDNNYFGDESSIIENEAAVKSPNVVKFEIQLYKTRDDKYLLDLQRVQGPQFLFLDLCAAFLAQLRVL
Regarding B2, in assay [4], the binding result is given as “binds”.

B3: glutathione S-transferase (GST)-SPCH (natural protein, Arabidopsis thaliana, UniProt Q700C7 1-364, looked up)
chain: MQEIIPDFLEECEFVDTSLAGDDLFAILESLEGAGEISPTAASTPKDGTTSSKELVKDQDYENSSPKRKKQRLETRKEEDEEEEDGDGEAEEDNKQDGQQKMSHVTVERNRRKQMNEHLTVLRSLMPCFYVKRGDQASIIGGVVEYISELQQVLQSLEAKKQRKTYAEVLSPRVVPSPRPSPPVLSPRKPPLSPRINHHQIHHHLLLPPISPRTPQPTSPYRAIPPQLPLIPQPPLRSYSSLASCSSLGDPPPYSPASSSSSPSVSSNHESSVINELVANSKSALADVEVKFSGANVLLKTVSHKIPGQVMKIIAALEDLALEILQVNINTVDETMLNSFTIKIGIECQLSAEELAQQIQQTFC
notes: full-length cDNA without stop codon in pDEST15 (N-GST); source: bacteria, purified (glutathione beads); not shown: GST, N-terminal, kept
B3: in assay [5], the binding entry is reported as “binds”.
